# Source: PubChem BioAssay (NCATS)
# Where “and” joins values, the source holds several entries; their conditions need not be identical. Identical values can stand only once. This list was built around the results that the source calls inconclusive (neither active nor inactive); the mix of calls is not that of the screen. A potency beside an inconclusive call is a rough fit, not a confirmed value. Calls of active or inactive are those of the source. Unless noted, calls follow the shape of the dose curve; as a rule, active = well fitted curve in the direction sought with a large enough effect; inconclusive = small, poorly fitted or top-dose-only effect, or another doubt; inactive = no such curve, though single readings can be large; an effect the other way counts as inactive or inconclusive.
# Test system: Zika virus NS2B-NS3 protease (linked construct)
# Test: Primary screen NINDS Rhodamine qHTS for Zika virus inhibitors (AID 1347160); also: nearly all actives have a fitted effect of over 55% in size
# Conditions: purified NS2B-NS3 protease, Rhodamine110 substrate fluorescence; series mostly up to 57.1 µM
# Summary of the method: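 Each compound, titrated, sat 15 min with 25 nM linked protease before 1.5 microM Rhodamine110 substrate went in. Fluorescence gain over the next 15 min, in pH 8.0 Tris with Tween 20, gave Hill-fitted curves.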
# Potency is read from the fitted curve at half-maximal effect; tags tell the direction and shape of the fitted curve.
row,SMILES,Potency
1,COc1ccnc(CS(=O)c2nc3cc(OC(F)F)ccc3[nH]2)c1OC (stereo not drawn),"inconclusive: 10 µM [inhibitor, full curve, poor fit]"
2,O=C(/C=C/c1ccc(O)c(O)c1)O[C@H]1[C@H](OC2CCCCC2O)O[C@H](CO)[C@@H](O)[C@@H]1O (stereo partly drawn),"inconclusive: 12.6 µM [inhibitor, single point]"
3,Cc1ccccc1-n1c([C@H](C)Nc2nc(N)nc3nc[nH]c23)nc2cccc(C)c2c1=O,inactive
4,CCOC(=O)c1cnn(-c2ccccc2)c1NC(=O)c1cc2nc(-c3ccco3)cc(C(F)(F)Cl)n2n1,inactive
5,Cc1ccc(Nc2c(F)cccc2Cl)c(CC(=O)O)c1,"inconclusive: 17.8 µM [inhibitor, single point]"
6,N#CC(c1ccnc(OCc2ccc(CN3CCOCC3)cc2)n1)c1nc2ccccc2s1 (stereo not drawn),active: 7.94 µM
7,C=C1C(=O)O[C@@H]2C[C@H](C)[C@@H]3CC(=O)C(C)=C3C[C@H]12,inactive

# Test system: not listed separately
# Test: qHTS to identify inhibitors of the type 1 interferon - major histocompatibility complex class I in skeletal muscle: primary screen against the NCATS Mechanism Interrogation Plate v5.0 (MIPE) Libary (AID 1347411); also: nearly all actives have a fitted effect of over 65% in size
# Conditions: iHSKM cells + IFN-b, HiBiT-tagged MHC-I luminescence, 24 h; activity change, negative = inhibition: at 45.8 µM (top of the series)
# Summary of the method: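 Seed engineered human myoblasts (HLA-B HiBit) in medium without dexamethasone containing 4 ng/ml IFN-beta; after 1 hr add compound titrations (top 46 uM final). Incubate 24 hrs at 37 C, lyse 10 min with HiBiT reagent, read luminescence.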
row,SMILES,Potency
1,CC(Nc1ncnc2nc[nH]c12)c1cc2cccc(Cl)c2c(=O)n1-c1ccccc1 (stereo not drawn),"inconclusive: 2.94 µM [inhibitor, partial curve]"
2,CCN(CC)CCCCNc1ncc2c(n1)N(C)C(=O)N(c1c(Cl)c(OC)cc(OC)c1Cl)C2,"inconclusive: 1.17 µM [inhibitor, full curve, poor fit]"
3,Cc1cc(C)c(CNC(=O)c2cc(-c3ccc(CN4CCOCC4)cc3)cc3c2cnn3C2CCCC2)c(=O)[nH]1,"inconclusive: 46.6 µM [inhibitor, single point]"
4,Cc1c(NC(=O)OCC2COCCN2)cn2ncnc(Nc3ccc4c(cnn4Cc4cccc(F)c4)c3)c12 (stereo not drawn),"inconclusive: 18.6 µM [inhibitor, single point]"
5,CN1CCN(c2ccc(C(=O)Nc3n[nH]c4ccc(Cc5cc(F)cc(F)c5)cc34)c(NC3CCOCC3)c2)CC1,active: 16.5 µM

# Target: Calcium and integrin-binding protein 1 (Homo sapiens) (UniProt Q99828)
# Sequence of UniProt Q99828 (Q99828 whole entry, looked up): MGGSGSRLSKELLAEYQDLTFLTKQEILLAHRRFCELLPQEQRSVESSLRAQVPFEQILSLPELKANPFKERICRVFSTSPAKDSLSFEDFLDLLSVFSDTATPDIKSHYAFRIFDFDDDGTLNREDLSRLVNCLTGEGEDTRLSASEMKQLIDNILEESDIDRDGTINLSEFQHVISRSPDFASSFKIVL
# Test: Primary qHTS for Identification of Calcium Integrin Binding Protein 1 (CIB1) Competitor (AID 1508620)
# Conditions: CIB1-GST / FITC-alphaIIb peptide fluorescence polarization; series mostly up to 114 µM
# Summary of the method: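 Fluorescence polarization competition: GST-tagged CIB1 (1 uM final) preincubated with compound 15 min at room temperature, then FITC-labelled alphaIIb peptide (100 nM final) added. After 15 min at room temperature, polarization read at Ex 480/Em 540.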
row,SMILES,Potency
1,COc1ccnc(CS(=O)c2nc3cc(OC(F)F)ccc3[nH]2)c1OC (stereo not drawn),"inconclusive: 56.2 µM [inhibitor, partial curve, poor fit]"
2,CN1CCc2cccc3c2[C@H]1Cc1ccc(O)c(O)c1-3,"inconclusive: 12.6 µM [inhibitor, partial curve, poor fit]"
3,CN1CCN(c2ccc(C(=O)Nc3n[nH]c4ccc(Cc5cc(F)cc(F)c5)cc34)c(NC3CCOCC3)c2)CC1,"inconclusive: 56.2 µM [inhibitor, partial curve, poor fit]"

# Test system: not listed separately
# Test: Primary qHTS for small molecule stabilizers of the endoplasmic reticulum resident proteome: Secreted ER Calcium Modulated Protein (SERCaMP) assay (AID 1508630)
# Conditions: SH-SY5Y GLuc-SERCaMP (Gaussia luciferase released on ER calcium loss) secretion, thapsigargin, luminescence; activity change, negative = inhibition: at 38.4 µM (top of the series)
# Summary of the method: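 The SH-SY5Y reporter protocol was run at 3 concentrations up to 38.3 uM (primary) or 11 concentrations (follow-up): 16 h compound, 100 nM thapsigargin for 4 h, then extracellular luciferase luminescence.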
row,SMILES,Potency
1,C[C@@H](O[C@H]1OCCN(Cc2n[nH]c(=O)[nH]2)[C@H]1c1ccc(F)cc1)c1cc(C(F)(F)F)cc(C(F)(F)F)c1,"inconclusive: 14.1 µM [inhibitor, single point]"
2,C(=C\c1ccccc1)/CN1CCN(C(c2ccccc2)c2ccccc2)CC1,"inconclusive: 11.2 µM [inhibitor, partial curve, poor fit] and inconclusive: 31.6 µM [inhibitor, single point]"
3,COc1ccc(Cc2cnc(N)nc2N)cc1OC,"inconclusive: 2.24 µM [inhibitor, full curve]"
4,CN1CCc2cccc3c2[C@H]1Cc1ccc(O)c(O)c1-3,"inconclusive: 28.2 µM [inhibitor, single point]"
5,Cc1ccc(Nc2c(F)cccc2Cl)c(CC(=O)O)c1,"inconclusive: 10 µM [inhibitor, partial curve, poor fit]"

# Test system: not listed separately
# Test: A High-Content qHTS Against Drug Library for the Identification of Small Molecules that Inhibit DYT1 Early Onset Primary Dystonia-Associated Cell Pathology (AID 1645839; calls by dose curve)
# Conditions: HEK293 Flp-In EGFP-delE TorsinA, punctate imaging, 48 h; series mostly up to 46.1 µM
# Summary of the method: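 Cells were seeded and left for 24 h, then dosed with compound alongside tetracycline induction of mutant EGFP-TorsinA. They were incubated for 48 h, fixed in 4% paraformaldehyde, permeabilized and imaged for mislocalization (%pathology) and cell count.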
row,SMILES,Potency
1,C[C@@H](O[C@H]1OCCN(Cc2n[nH]c(=O)[nH]2)[C@H]1c1ccc(F)cc1)c1cc(C(F)(F)F)cc(C(F)(F)F)c1,"inconclusive: 28.2 µM [inhibitor, single point]"
2,C(=C\c1ccccc1)/CN1CCN(C(c2ccccc2)c2ccccc2)CC1,"inconclusive: 14.1 µM [inhibitor, partial curve, poor fit]"
3,CCN(CC)CCOc1ccc2c(c1)C(=O)c1cc(OCCN(CC)CC)ccc1-2,"inconclusive: 17.8 µM [inhibitor, partial curve, poor fit]"
4,CN1CCc2cccc3c2[C@H]1Cc1ccc(O)c(O)c1-3,"inconclusive: 12.6 µM [inhibitor, partial curve, poor fit]"

# Target: Cytochrome P450 2D6 (Homo sapiens) (UniProt P10635)
# Sequence of UniProt P10635 (P10635 whole entry, looked up): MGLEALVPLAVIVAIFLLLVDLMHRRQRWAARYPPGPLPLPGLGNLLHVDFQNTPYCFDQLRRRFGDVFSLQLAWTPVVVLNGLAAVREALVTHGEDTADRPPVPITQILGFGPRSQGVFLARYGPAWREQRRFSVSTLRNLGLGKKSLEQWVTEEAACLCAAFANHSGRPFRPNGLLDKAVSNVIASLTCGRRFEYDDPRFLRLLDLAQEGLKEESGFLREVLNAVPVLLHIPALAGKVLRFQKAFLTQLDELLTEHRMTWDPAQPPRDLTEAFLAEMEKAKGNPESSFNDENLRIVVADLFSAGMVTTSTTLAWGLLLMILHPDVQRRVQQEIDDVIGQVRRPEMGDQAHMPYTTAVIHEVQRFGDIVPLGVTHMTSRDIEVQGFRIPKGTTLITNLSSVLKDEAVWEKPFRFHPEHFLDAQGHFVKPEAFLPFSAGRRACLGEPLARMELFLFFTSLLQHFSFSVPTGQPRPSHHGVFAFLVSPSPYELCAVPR
# Test: Cytochrome P450 family 2 subfamily D member 6 (CYP2D6) small molecule antagonists: luciferase biochemical (cell-free) qHTS assay (AID 1645840; active = well fitted curve in the direction sought with a large enough effect in the repeat runs; inconclusive = weak or mixed curves; inactive = no such curve, though single readings can be large; an effect the other way counts as inactive or inconclusive; also: nearly all actives have a fitted effect of over 55% in size)
# Conditions: P450-Glo CYP2D6 enzyme, luciferin luminescence, 1 h; series mostly up to 57.4 µM
# Summary of the method: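 P450-Glo CYP2D6 system: proluciferin substrate converted by enzyme to luciferin, read by luminescence proportional to activity. Enzyme-substrate mix with compound 10 min at room temperature, then NADPH regeneration 1 h before detection reagent.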
row,SMILES,Potency
1,CC(=O)NC1=NN(C(C)=O)C(C)(c2ccccc2)S1 (stereo not drawn),inactive
2,C[C@@H](O[C@H]1OCCN(Cc2n[nH]c(=O)[nH]2)[C@H]1c1ccc(F)cc1)c1cc(C(F)(F)F)cc(C(F)(F)F)c1,active: 20.4 µM
3,O=C1CSc2ccccc2N1Cc1cccc(C(F)(F)F)c1,"inconclusive: 26.8 µM [inhibitor, single point]"
4,COc1ccc2nccc(C(=O)CC[C@@H]3CCN(CC#Cc4cc(F)cc(F)c4F)C[C@@H]3C(=O)O)c2c1,"inconclusive: 0.301 µM [inhibitor, single point]"
5,CCN(CC)CCOc1ccc2c(c1)C(=O)c1cc(OCCN(CC)CC)ccc1-2,inactive
6,CN1CCc2cccc3c2[C@H]1Cc1ccc(O)c(O)c1-3,"inconclusive: 15.5 µM [inhibitor, partial curve]"
7,Cc1ccc(Nc2c(F)cccc2Cl)c(CC(=O)O)c1,"inconclusive: 27.5 µM [inhibitor, single point]"
8,N#CC(c1ccnc(OCc2ccc(CN3CCOCC3)cc2)n1)c1nc2ccccc2s1 (stereo not drawn),inactive
9,CC(=O)NCC(=O)N1C2CCC1c1cc(Nc3ncc(C(F)(F)F)c(NC4CCC4)n3)ccc12 (stereo not drawn),"inconclusive: 26.8 µM [inhibitor, partial curve, poor fit]"
